Experimental data as given in the supplement of paper PMC11417369.
The other results are listed elsewhere or left out.

Tested on: PfSIP2 AP2 domain 1 (GST-tagged)
Assay: gcPBM binding intensity (ln(normalized median fluorescence intensity)); higher = stronger DNA binding
Outline: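 Binding of GST-tagged P. falciparum DNA-binding domains, expressed in E. coli and used at about 25 μg on average, was carried out for 1 h in 1× PBS containing 1% milk, 0.2 mg/ml BSA, 0.5% salmon testes DNA and 0.03% Triton X-100. The target was an Agilent 4 × 180k array of primer-extended double-stranded 36-bp intergenic genomic probes plus negative controls, read with Alexa488 anti-GST antibody at 488 nm. Binding intensity is the highest Masliner-normalised natural-log median intensity across replicate spots of either probe orientation.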

In order of falling “gcPBM binding intensity (ln)” value:
1. AGAAATAAGAAATATACACACATATATATATATATA [CACACA_site2808]  9.79
2. CCCCCCGTGTTATATACACACATAATCAAATAAAAT [CACACA_site4111]  9.75
3. TATATATATATATATGTACACACATCAATCATATTA [CACACA_site8594]  9.57
4. TTTTTCTTATTTGGATTGCACTACATATATATATAT  9.55
5. AAGAAAAAAAAAAAAACACACATATATATATATATA [CACACA_site2027]  9.4
6. CATATAAAAATGTGCACACACACACCGATATATATT [CACACA_site4940]  9.39
7. TATAAATAGAGGAAGCGTACATATATATATATATAT [XGTACX_site4993]  9.38
8. AAAAAAAAAAAAAAATGTACATATATATATATATAT [XGTACX_site876]  9.33
9. TATAAATATACACCCACACACATATATATATATATA [CACACA_site3745]  9.29
10. AAAATTTTTTGAAATAGTACTTTTTTATATATATAT [XGTACX_site2634]  9.11
11. TTTTGTTATGAGAGGGTGCTAATATTTGGATATAAA  9
12. TATATATATATATATACACACTTGTGCAGAATATTA [CACACA_site5257]  8.94
13. TGTACGAGTCGTAGAGTGCAGTCTGGAGAAAAGTAC [GTGCAC_site9683]  8.91
14. TATAAAATAAGACATGCATGTTATACATATATATAT [TGCATGCA_site314]  8.81
15. GTATATTTTAATATGACACACATATTATATATATAT [CACACA_site2483]  8.74
16. TAACTTTGAAAAGATGGTACACAATAATATATATAT [XGTACX_site8667]  8.48
17. TATATTATATATATACTGCACTGTTTTACAAAATTA  8.44
18. TTTTGTTATTATGAAGTGCATTTATGTTCATGTCTA  8.18
19. AGGTGCTTAATATATACACACATACAGATATATATA [CACACA_site5552]  7.6
20. AAAATCTAATATAATGCACACATAAAAAAAAATCAA [CACACA_site9211]  7.52
21. ACATATACAAGACACACACACAACGTTTTAATAAAT [CACACA_site7017]  7.51
22. AAGGAATATGTATATACACACAGGTACATATATATA [CACACA_site441]  7.36
23. TCTTATAAACTCTGCACACATAATATATTAAATGAG [CACACA_site1936]  7.35
24. ATATATTTTTACCATACACACATATAATAAATATAT [CACACA_site3722]  7.35
25. TATAAATGTGTATGCGCATGTAAAAATATAATTTAT [TGCATGCA_site750]  7.33
26. TTATATTATACATACACACCCATATAACATGTTTTT [CACACA_site6539]  7.31
27. ATAATAATATTGTGTACACAATAATTTGTCAAATCA [CACACA_site6019]  7.3
28. TATTTTTTTCTTACTACACACATATATATGCTTTCC [CACACA_site4058]  7.3
29. TGTATCCATATTTGTTCACACACACCCATATTTATA [CACACA_site9190]  7.27
30. TATAAATTTATATATGCATGTCAGAAAAAAAAGTAA [TGCATGCA_site414]  7.26
31. TATATATATTTATGCTGTACCAAATAAGAATAGAAA [XGTACX_site7731]  7.26
32. TATATAAAAAATAAATGTACACATGTAATAATAAAA [XGTACX_site2640]  7.25
33. TATTTTTTTTTTTTTTGTACACATAATTGTAATCGT [XGTACX_site8415]  7.24
34. ACCCTTTTATATAAGAGTACAAACGTATTATTAAAT [XGTACX_site2221]  7.23
35. TCACTTTTTATTAAATGTACATGCTTTCATTTTCAT [XGTACX_site8139]  7.21
36. TGAACAATGTATAATTGTACGCAACGAAAATAAAAA [XGTACX_site1559]  7.21
37. AAAAAATAATAATAATGTACAAATAAAATAAAAACA [XGTACX_site6568]  7.19
38. ATCATGTTATATATGTGTACATATATATGATATAAT [XGTACX_site991]  7.18
39. CTAAAATGTAAAAACGCACACATAATATTATAAAAA [CACACA_site2788]  7.16
40. AAAAAAAAAAAAAGTAGTACATAATATGTTCCTCCT [XGTACX_site8356]  7.16
41. ATAATATGTATGGTCACACAGACAAGGAAAGAATAA [CACACA_site5164]  7.16
42. GTGAGTGAAATATGCAAACACACACCCGAAAAATGT [CACACA_site3197]  7.14
43. GAACTCATTACAAAGTGTACAAATTAAATAAATGGT [XGTACX_site3995]  7.13
44. ATTTATTATGAACATACACACAAAAAAAAAAAGTAT [CACACA_site2054]  7.13
45. TGAATAAATCAAAGCACACATACACAGACATATATA [CACACA_site4316]  7.12
46. TATATAAATAAACACACACACACCTTATAATTATTA [CACACA_site9345]  7.1
47. ATATATAAATATATATGTACATAAATATATATCTTT [XGTACX_site6910]  7.09
48. CAACAAAATAAACACACACACACAAACACAAAAAAA [CACACA_site5806]  7.08
49. ATTATAAATTAAAATACACACATATATACCTAATAT [CACACA_site5541]  7.07
50. ATATATGACTAATAAAGTACATACTTCATATAATTA [XGTACX_site6699]  7.06
51. CTTGTCATTTGGCACACACACATGTATAGGTTATTA [CACACA_site5656]  7.03
52. GGATATTAATAAATATGTACATATGTAGATTTATTA [XGTACX_site554]  7.02
53. AGCACAAGCACAAGCACACATTTATATATAAATACA [CACACA_site4642]  7.01
54. AAAGCATGTTAATATGTATAAATACTGATCATTCAC [GTGCAC_negctrl_site576]  6.99
55. AAAAAAAGAAAAATTGCACACACTTATAAAAATATA [CACACA_site4014]  6.99
56. CAAATAATATTATGAAGTACTTCAAATTTTGAAAGA [XGTACX_site2530]  6.98
57. AATATAGGTATATCCACACACATATTTATATTTATA [CACACA_site6867]  6.97
58. AAATAAATAAATAGACGTACAAAAATATTATACATT [XGTACX_site6776]  6.97
59. GATATGATGTGTTTGGTAGTTTTTGATGTTGGCATG [GTGCAC_negctrl_site506]  6.96
60. TAAATGATTGCATAATGTACATATAATTTTTTTTTT [XGTACX_site1988]  6.96
61. ATAAGGTTACAACAAACACACAAAGGAATATACACA [CACACA_site7840]  6.95
62. TCTTATTAAAATATTTATATAGGTAATCACAATATT [GTGCAC_negctrl_site568]  6.95
63. TAATATATGTTATATACACACATATAAATATAAATA [CACACA_site6339]  6.93
64. TGACATAAAAAATATACACACTATAATATATATACT [CACACA_site4898]  6.92
65. CCACAGGATTGGTTCAAACACACATATTATATGACT [CACACA_site661]  6.91
66. AGAATAAAAATACAAGCACACATGTATGAAATATAT [CACACA_site3213]  6.91
67. TCATTAATATTTCATAGTACAATTTTGTCTAATTGT [XGTACX_site6720]  6.91
68. TCGTGTGAAAATATTACACACATTTACTATAGTATC [CACACA_site7590]  6.89
69. AAAAAAAAAAAAAATTCACACAAGACTACTACATTT [CACACA_site4195]  6.88
70. TGTATACCTTAATATACACACATACCTATATTTATA [CACACA_site6746]  6.87
71. TGTGTATAAGTCACTTGTACTAGTAGTAAAAAAAAA [XGTACX_site4341]  6.85
72. ATATATAATTACACAAATAAAAAAATAAAATGAAAT [CACACA_negctrl_site1513]  6.85
73. AATATTAAAAACAAAACACACAAAAAAAAATAAAAT [CACACA_site702]  6.84
74. TATAAAGGTATACAAAGTACAAAATACATATATACT [XGTACX_site6431]  6.84
75. TAATGTTGAGAATTTTGTACATATAGATCAATTTAT [XGTACX_site5426]  6.84
76. ATATGAACAAAATAAATCTCTTCAAAAATAATGTTC [GTGCAC_negctrl_site2]  6.82
77. TGTGTAAACATATTCACACACATAAATTCGCATATA [CACACA_site6961]  6.81
78. TAAAGTTTTTCCTATCTATATTTATATTATAAATGA [XGTACX_negctrl_site20]  6.78
79. TTTTAGTTATTGTATTATTATTAATATATAATATCT [CACACA_negctrl_site1528]  6.77
80. GAATAAATAATTAACACACACAATCTTTTTTTTTTT [CACACA_site3140]  6.76
81. AATAATGAAAAAATGAATAAAATTACTATATAATTC [XGTACX_negctrl_site457]  6.75
82. GTAAATAATAAACACCGTACATGGTATAATTCAATG [XGTACX_site3655]  6.75
83. AATCAATTAATATTAGCATAAAATTTTATTATTTTG [XGTACX_negctrl_site479]  6.75
84. ATAAAAATTGAAACATGTACACATATTCATTTTATA [XGTACX_site7968]  6.73
85. TATGATTTTAATGAAACACACAATTTTATGTTAATA [CACACA_site311]  6.66
86. TTTAATATTATTATTTTACACACTTTTTTCCTTTTA [CACACA_site8780]  6.64
87. AAAAAAAAAAATAAAGAAATCAAAATTGATGAATAA [GTGCAC_negctrl_site692]  6.64
88. AAAAAAAAAATAAAATAAAATATATTATATATATTA [GTGCAC_negctrl_site431]  6.58
89. TGAAGTATAATTTATCTAATATGTTATATTTTATTT [TGCATGCA_negctrl_site56]  6.39
